# This is one part of the list.
# Key:
# Assay in all cases: glycan array binding signal (z-score within array); higher = stronger binding
# Details in all cases: glycan notation: IUPAC condensed, linker removed
# [1] = molecular target: Gal(b1-3)GlcNAc(b1-2)Man(a1-3)[Gal(b1-3)GlcNAc(b1-2)Man(a1-6)]Man(b1-4)GlcNAc(b1-4)GlcNAc
# Method in brief: (§1)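 Glycan array binding is given as a within-array Z-score, which can be read as non-binding when negative. The arrays, 3228 of them, came from the Consortium for Functional Glycomics database and were retained only where the protein sequence was available. Z-scores were averaged across arrays of the same protein sequence at different concentrations or buffers and across linkers.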
# [2] = molecular target: Gal(b1-3)GlcNAc(b1-2)Man(a1-3)[Gal(b1-3)GlcNAc(b1-2)Man(a1-6)]Man(b1-4)GlcNAc(b1-4)[Fuc(a1-6)]GlcNAc
# Method in brief: as §1
# [3] = molecular target: Gal(b1-3)GlcNAc(b1-2)Man(a1-3)[GlcNAc(b1-4)][Gal(b1-3)GlcNAc(b1-2)Man(a1-6)]Man(b1-4)GlcNAc(b1-4)GlcNAc
# Method in brief: as §1
# [4] = molecular target: Gal(b1-3)GlcNAc(b1-2)[Gal(b1-3)GlcNAc(b1-6)]Man(a1-6)[Gal(b1-3)GlcNAc(b1-2)Man(a1-3)]Man(b1-4)GlcNAc(b1-4)GlcNAc
# Method in brief: as §1
# [5] = molecular target: Gal(b1-3)GlcNAc(b1-3)Gal(b1-3)GlcNAc
# Method in brief: as §1
# [6] = molecular target: Gal(b1-3)GlcNAc(b1-3)Gal(b1-4)Glc
# Method in brief: as §1
# [7] = molecular target: Gal(b1-3)GlcNAc(b1-3)Gal(b1-4)GlcNAc
# Method in brief: as §1
# [8] = molecular target: Gal(b1-3)GlcNAc(b1-3)Gal(b1-4)GlcNAc(b1-2)Man(a1-3)[Gal(b1-3)GlcNAc(b1-3)Gal(b1-4)GlcNAc(b1-2)Man(a1-6)]Man(b1-4)GlcNAc(b1-4)GlcNAc
# Method in brief: as §1
# [9] = molecular target: Gal(b1-3)GlcNAc(b1-3)Gal(b1-4)GlcNAc(b1-2)[Gal(b1-3)GlcNAc(b1-3)Gal(b1-4)GlcNAc(b1-6)]Man(a1-6)[Gal(b1-3)GlcNAc(b1-3)Gal(b1-4)GlcNAc(b1-2)Man(a1-3)]Man(b1-4)GlcNAc(b1-4)[Fuc(a1-6)]GlcNAc
# Method in brief: as §1
# [10] = molecular target: Gal(b1-3)GlcNAc(b1-3)Gal(b1-4)GlcNAc(b1-3)Gal(b1-4)GlcNAc(b1-2)[Gal(b1-3)GlcNAc(b1-3)Gal(b1-4)GlcNAc(b1-3)Gal(b1-4)GlcNAc(b1-6)]Man(a1-6)[Gal(b1-3)GlcNAc(b1-3)Gal(b1-4)GlcNAc(b1-3)Gal(b1-4)GlcNAc(b1-2)Man(a1-3)]Man(b1-4)GlcNAc(b1-4)[Fuc(a1-6)]GlcNAc
# Method in brief: as §1
# [11] = molecular target: Gal(b1-3)GlcNAc(b1-3)Gal(b1-4)GlcNAc(b1-6)[Gal(b1-3)GlcNAc(b1-3)]Gal(b1-4)Glc
# Method in brief: as §1
# [12] = molecular target: Gal(b1-3)GlcNAc(b1-3)Gal(b1-4)[Fuc(a1-3)]GlcNAc
# Method in brief: as §1
# [13] = molecular target: Gal(b1-3)GlcNAc(b1-3)Gal(b1-4)[Fuc(a1-3)]GlcNAc(b1-6)[Gal(b1-3)GlcNAc(b1-3)]Gal(b1-4)Glc
# Method in brief: as §1
# [14] = molecular target: Gal(b1-3)GlcNAc(b1-3)GalNAc
# Method in brief: as §1
# [15] = molecular target: Gal(b1-3)GlcNAc(b1-6)Gal(b1-4)GlcNAc
# Method in brief: as §1
# [16] = molecular target: Gal(b1-3)GlcNAc(b1-6)GalNAc
# Method in brief: as §1
# [17] = molecular target: Gal(b1-3)GlcNAc(b1-6)[Gal(b1-3)]GalNAc
# Method in brief: as §1
# Gal(b1-3)GlcNAc6S = molecular target: Gal(b1-3)GlcNAc6S
# Method in brief: as §1
# [18] = molecular target: Gal(b1-3)[Fuc(a1-4)]GlcNAc
# Method in brief: as §1
# [19] = molecular target: Gal(b1-3)[Fuc(a1-4)]GlcNAc(b1-2)Man
# Method in brief: as §1
# [20] = molecular target: Gal(b1-3)[Fuc(a1-4)]GlcNAc(b1-2)Man(a1-3)[Gal(b1-3)[Fuc(a1-4)]GlcNAc(b1-2)Man(a1-6)]Man(b1-4)GlcNAc(b1-4)[Fuc(a1-6)]GlcNAc
# Method in brief: as §1
# [21] = molecular target: Gal(b1-3)[Fuc(a1-4)]GlcNAc(b1-3)Gal(b1-3)[Fuc(a1-4)]GlcNAc
# Method in brief: as §1
# [22] = molecular target: Gal(b1-3)[Fuc(a1-4)]GlcNAc(b1-3)Gal(b1-4)[Fuc(a1-3)]GlcNAc
# Method in brief: as §1
# [23] = molecular target: Gal(b1-3)[Fuc(a1-4)]GlcNAc(b1-6)GalNAc
# Method in brief: as §1
# [24] = molecular target: Gal(b1-3)[GlcNAc(b1-6)]GalNAc
# Method in brief: as §1
# [25] = molecular target: Gal(b1-3)[Neu5Ac(a2-6)]GalNAc
# Method in brief: as §1
# [26] = molecular target: Gal(b1-3)[Neu5Ac(a2-6)]GlcNAc(b1-4)Gal(b1-4)Glc
# Method in brief: as §1
# [27] = molecular target: Gal(b1-3)[Neu5Ac(b2-6)]GalNAc
# Method in brief: as §1
# Gal(b1-4)Gal = molecular target: Gal(b1-4)Gal
# Method in brief: as §1
# [28] = molecular target: Gal(b1-4)GalNAc(a1-3)[Fuc(a1-2)]Gal(b1-4)GlcNAc
# Method in brief: as §1
# [29] = molecular target: Gal(b1-4)GalNAc(b1-3)[Fuc(a1-2)]Gal(b1-4)GlcNAc
# Method in brief: as §1
# Gal(b1-4)Glc = molecular target: Gal(b1-4)Glc
# Method in brief: as §1
# Gal(b1-4)Glc6S = molecular target: Gal(b1-4)Glc6S
# Method in brief: as §1
# Gal(b1-4)GlcNAc = molecular target: Gal(b1-4)GlcNAc
# Method in brief: as §1
# [30] = molecular target: Gal(b1-4)GlcNAc(a1-6)Gal(b1-4)GlcNAc
# Method in brief: as §1
# Gal(b1-4)GlcNAc(b1-2)Man = molecular target: Gal(b1-4)GlcNAc(b1-2)Man
# Method in brief: as §1
# [31] = molecular target: Gal(b1-4)GlcNAc(b1-2)Man(a1-3)Man(b1-4)GlcNAc(b1-4)GlcNAc
# Method in brief: as §1
binder,measurement,setting,value
"AT5G01260(PC)(40) (Arabidopsis thaliana), Q9LFB0 (protein) MIGIGRTLTSSSPSKIILEDLPPGIYRYGTEIFTSVPRKTFHHIKFLRLDSAQSSRILKPVPLRSSSIKDSQVNVEDEEIEASNKTVRVRFQLRKECVFGEHFFIVGDDPVFGGLWDPETALPLNWSDGNVWTVDLDLPVGRLVEFKLLLKAQTGEILWQPGPNRALETWETNKTIRICEDWDNADLQMMIEEDFVPYTNISSIGSEDEDEVLGSVQQNSSVVAVENAGYVSDESAQNSSFSIQSEKTMEPSNGALTAREVIKEAMFTEEESPVLVPGLIPLSDLDNEQVEVINEGKAETFPEVDKKQEPKAERNKKAKVKAISLFEKSEQEAVKSVEQRQYNAVEEEQQRLETEPLGTPDVLFENDIQWGRRTLYKLLSNFRLF",glycan array binding signal (z-score),[1],0.891
same,glycan array binding signal (z-score),[2],0.082
same,glycan array binding signal (z-score),[3],0.088
same,glycan array binding signal (z-score),[4],0.097
same,glycan array binding signal (z-score),[5],-0.165
same,glycan array binding signal (z-score),[6],0.239
same,glycan array binding signal (z-score),[7],-0.063
same,glycan array binding signal (z-score),[8],0.194
same,glycan array binding signal (z-score),[9],0.533
same,glycan array binding signal (z-score),[10],0.184
same,glycan array binding signal (z-score),[11],-0.348
same,glycan array binding signal (z-score),[12],-0.113
same,glycan array binding signal (z-score),[13],-0.193
same,glycan array binding signal (z-score),[14],0.137
same,glycan array binding signal (z-score),[15],-0.175
same,glycan array binding signal (z-score),[16],-0.301
same,glycan array binding signal (z-score),[17],-0.659
same,glycan array binding signal (z-score),Gal(b1-3)GlcNAc6S,0.146
same,glycan array binding signal (z-score),[18],-0.278
same,glycan array binding signal (z-score),[19],-0.564
same,glycan array binding signal (z-score),[20],0.147
same,glycan array binding signal (z-score),[21],-0.337
same,glycan array binding signal (z-score),[22],-0.007
same,glycan array binding signal (z-score),[23],0.343
same,glycan array binding signal (z-score),[24],0.411
same,glycan array binding signal (z-score),[25],-0.559
same,glycan array binding signal (z-score),[26],-0.456
same,glycan array binding signal (z-score),[27],-0.317
same,glycan array binding signal (z-score),Gal(b1-4)Gal,-0.32
same,glycan array binding signal (z-score),[28],-0.618
same,glycan array binding signal (z-score),[29],-0.511
same,glycan array binding signal (z-score),Gal(b1-4)Glc,-0.211
same,glycan array binding signal (z-score),Gal(b1-4)Glc6S,0.576
same,glycan array binding signal (z-score),Gal(b1-4)GlcNAc,0.708
same,glycan array binding signal (z-score),[30],-0.196
same,glycan array binding signal (z-score),Gal(b1-4)GlcNAc(b1-2)Man,0.623
same,glycan array binding signal (z-score),[31],-0.715
